System: yeast infections of the vagina
Details: suppository every 24 hours; within 7 days for Example 3

Q: Clc1ccccc1C(c1ccccc1)(c1ccccc1)n1ccnc1 [clotrimazole] was tested. Which “Yeast culture / yeast assay” value did it give?
A: Its value is “a yeast assay is negative”.

From US5270344A, “Method of treating a systemic disorder using trioxolane and diperoxide compounds” (priority 1992, dated 1993)
